Experimental data from PubChem BioAssay AID1159614 (National Center for Advancing Translational Sciences (NCATS), 2016).
Among all 45,000 compounds or so, about 65 (0.1%) were called active. The call rests on the fitted dose curve; in most records, active means well fitted activation curve with a large enough effect; inconclusive means small, poorly fitted or top-dose-only effect; inactive means no such curve, though single readings can be large or run the other way. This is one part of the list.

What follows are compounds tested against Galactocerebrosidase (Homo sapiens) (UniProt P54803) (assay: A Novel Cell-Based Assay to Identify Small Molecules for B -Galactocerebrosidase). Conditions: 145M-Twi-hGALC-G270D cells (Twitcher mouse brain line with human GALC G270D), HMU-beta-Gal fluorescence, 48 h; series mostly up to 57.5 µM; activation: at the top concentration.
In short: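 Mutant human GALC (G270D), stably expressed in a Twitcher mouse brain cell line lacking endogenous GALC, is measured in live-treated cells via 6-hexadecanoylamino-4-methylumbelliferyl-β-galactoside hydrolysis (0.1 mM final, pH 5.2) with fluorescent detection.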
Further: 0% is about no effect; nearly all actives have a fitted effect of over 65% in size.

Sequence of UniProt P54803 (P54803 whole entry, looked up): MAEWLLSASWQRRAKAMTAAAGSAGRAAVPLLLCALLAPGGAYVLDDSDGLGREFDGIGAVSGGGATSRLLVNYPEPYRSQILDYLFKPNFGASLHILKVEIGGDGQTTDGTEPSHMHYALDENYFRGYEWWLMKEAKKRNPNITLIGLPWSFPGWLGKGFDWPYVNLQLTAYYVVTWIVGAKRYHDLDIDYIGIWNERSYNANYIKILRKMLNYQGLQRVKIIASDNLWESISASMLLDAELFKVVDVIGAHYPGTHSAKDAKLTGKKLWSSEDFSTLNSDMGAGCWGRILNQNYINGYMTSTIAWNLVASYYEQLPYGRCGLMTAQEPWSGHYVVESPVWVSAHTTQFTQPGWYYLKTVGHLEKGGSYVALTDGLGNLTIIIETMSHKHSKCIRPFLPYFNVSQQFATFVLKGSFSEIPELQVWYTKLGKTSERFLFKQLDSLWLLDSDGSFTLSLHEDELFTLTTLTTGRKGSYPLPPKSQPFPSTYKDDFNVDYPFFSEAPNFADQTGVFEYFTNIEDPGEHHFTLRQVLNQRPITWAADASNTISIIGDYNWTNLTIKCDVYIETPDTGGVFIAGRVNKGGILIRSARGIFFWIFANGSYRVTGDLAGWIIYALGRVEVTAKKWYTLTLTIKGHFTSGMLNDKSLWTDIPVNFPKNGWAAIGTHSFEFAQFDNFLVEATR

activation, inactive:
CNc1c2c(nn1C)CCCC2 -13.5%
Cc1ccc(NC(=O)Cn2cc3c(n2)CCCC3)c(Cl)c1 -6.5%
COc1ccccc1N1CCN(c2ccc(=O)n(CC(=O)NCc3ccc(OC(C)C)cc3)n2)CC1 5.49%
CN(C)S(=O)(=O)c1ccc2c(c1)N(CC(=O)NCc1ccc(F)cc1)C(=O)CS2 -11.5%
COc1ccc(C)cc1NC(=O)Cn1c(=O)c(C(F)(F)F)nc2ccccc21 -11.6%
O=C(Nc1ccc2oc(-c3cccnc3)nc2c1)c1ccc(-c2ccccc2OC(F)(F)F)o1 -9.08%
COc1ccc(-n2nc(C(=O)Nc3cc(OC)c(OC)c(OC)c3)c(=O)n(C)c2=O)cc1 -15.1%
COc1ccc(-c2cc3ccc(O)c(CN4CCC(C)CC4)c3oc2=O)cc1 -24.3%
CC1=C(c2ccc(C)cc2)S(=O)(=O)NC1=NCCCN1CCN(c2ccccc2F)CC1 -14.1%
COc1ccc(-n2nc(C(=O)N3CCN(c4ccc(F)cc4)CC3)c3c4ccccc4n(C)c3c2=O)cc1 -9.97%
Cc1cccc(-c2nc3scc(CCNS(=O)(=O)c4ccc(Oc5ccccc5)cc4)n3n2)c1 -4.57%
Cc1nn(C)c2c1c(C(F)(F)F)cc(=O)n2CC(=O)NCCC(C)C -6.47%
O=C(O)c1ccc(Nc2nc3ccccc3n3cnnc23)cc1 -1.67%
CCc1ccc(-c2nn(CC(=O)NC3CCCCC3)c3c2cnc2ccc(C)cc23)cc1 -16.3%
CCc1ccccc1NS(=O)(=O)c1ccc2c(c1)CCN2C(=O)C1CC1 4.05%
c1ccc(N2CCN(Cc3cccn3-c3nnc(N4CCN(C5CCCCC5)CC4)s3)CC2)cc1 -20.2%
CCN(c1ccccc1C)S(=O)(=O)c1ccc(N2CCCCS2(=O)=O)cc1 -15%
O=C(CN1CCN(Cc2cccc(Cl)c2)C1=O)NCc1ccc(F)cc1 -11.9%
COc1ccc(C2CC(=O)N(Cc3ccc(F)cc3)c3ccccc3S2)cc1OC (configuration not stated) -16.4%
COc1ccccc1C(=O)NCCn1cc(SCc2ccc(C)cc2)c2ccccc21 -11.4%
CCCCCn1c(=O)[nH]c2cc(C(=O)NCc3ccc(Cl)cc3)ccc2c1=O 0.796%
CCC1CCc2nc3sc(C(=O)Nc4ccc(C)cc4)c(N)c3cc2C1 (configuration not stated) -12.2%
COc1ccc(OC)c2sc(N3CCN(C(=O)c4ccc5c(c4)CCCC5)CC3)nc12 -1.68%
Cn1c(=O)c2cc(C(=O)NCCCN3CCN(c4cccc(Cl)c4)CC3)sc2c2ccccc21 -12.4%
Cc1nn(-c2ccccc2)c(-n2cccc2)c1C(=O)NCCc1ccc(Cl)cc1 -0.691%
CCOc1ccc(CCNC(=O)c2nn(-c3ccc(OC)c(Cl)c3)c(=O)c3c2c2ccccc2n3C)cc1OCC -13.2%
COc1ccc(OCC(=O)Nc2ccc3c(c2)nc(CCNC(=O)c2ccco2)n3C)cc1 11.7%
